# The inconclusive results got no clear call from the source; some entries with a clear call stand among them for comparison. For part of these data: A potency beside an inconclusive call is a rough fit, not a confirmed value. Calls of active or inactive are those of the source. Calls follow the shape of the dose curve; as a rule, active = well fitted curve in the direction sought with a large enough effect in the repeat runs; inconclusive = weak or mixed curves; inactive = no such curve, though single readings can be large; an effect the other way counts as inactive or inconclusive.
# System: not listed separately
# Experiment: qHTS assay to identify small molecule agonists of the constitutive androstane receptor (CAR) signaling pathway - cell viability counter screen (AID 1224836); also: nearly all actives have a fitted effect of over 45% in size; also: potency is read from the fitted curve at half-maximal effect
# Settings: HepG2-CYP2B6-hCAR viability, CellTiter-Fluor, 23 h, PK11195 added to every well; series mostly up to 92.4 µM; viability change, negative = cytotoxic: at the top concentration
# Outline: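 HepG2 cells stably carrying hCAR and a CYP2B6-2.2kb reporter were plated 4 h, then given compounds at 15 concentrations plus PK11195 (final 0.75 uM). After 23 h at 37 C, viability was read by CellTiter-Fluor fluorescence.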
# % is scaled to controls: 0 for no effect and ±100 for the full control effect; tags tell the direction and shape of the fitted curve.
SMILES,"viability change, negative = cytotoxic",Potency
CCCCCCCCCCOc1cc2c(=O)c(C(=O)OCC)c[nH]c2cc1OCC,inactive: 4.44% [at 8.39 µM],–
O=C(O)/C=C/C(=O)O,–,inactive
C=C(C)C(=O)OC,inactive: 4.86%,–
CC/C=C\CC/C=C/CO,inactive: 1.48%,–
CC1(C)CC(N)CC(C)(C)N1,inactive: -5.52%,–
NC(=O)c1cn(Cc2c(F)cccc2F)nn1,–,"inconclusive: 13.3 µM [cytotoxic, single point]"
C=CC(C)(O)CC/C=C(\C)CC (stereo not drawn),inactive: -4.93%,–

# System: not listed separately
# Experiment: qHTS assay to identify small molecule antagonists of the constitutive androstane receptor (CAR) signaling pathway - cell viability counter screen (AID 1224837); also: nearly all actives have a fitted effect of over 45% in size
# Settings: HepG2-CYP2B6-hCAR viability, CellTiter-Fluor, 23 h, co-treated with 50 nM CITCO; series mostly up to 92.4 µM; activity change, negative = cytotoxicity: at the top concentration
# Outline: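 To flag cytotoxic false antagonists, HepG2 hCAR/CYP2B6-2.2kb cells were treated 23 hr with 15-concentration compound series and 50 nM CITCO at 37 C/5% CO2; CellTiter-Fluor fluorescence was the measured end point.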
row,SMILES,"activity change, negative = cytotoxicity"
1,O=C(O)/C=C/c1ccccc1,inactive: 0.605%
2,CC/C=C\CCCCO,inactive: 3.51%
3,CC(C)OC(=O)C(C(=O)OC(C)C)=C1SC=CS1,inactive: -0.339% [at 42.5 µM]

# Target: Nuclear receptor subfamily 1 group I member 3 (Homo sapiens) (UniProt Q14994)
# Experiment: qHTS assay to identify small molecule antagonists of the constitutive androstane receptor (CAR) signaling pathway (AID 1224838);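 also: HepG2 cells stably expressing hCAR with CYP2B6 luciferase reporter stimulated by CITCO; nearly all actives have a fitted effect of over 40% in size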; also: potency is read from the fitted curve at half-maximal effect
# Settings: HepG2-CYP2B6-hCAR luciferase, CITCO-stimulated, 24 h; series mostly up to 92.4 µM; activity, negative = inhibition: at the top concentration
# Outline: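 Human hepatoma HepG2 cells expressing hCAR and a CYP2B6 promoter (2.2 kb) luciferase construct; compound titration (15 points) with 50 nM CITCO final, 24 h at 37 C/5% CO2; luminescence via ONE-Glo after 30 min at room temperature.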
# Chain of UniProt Q14994 (Q14994 whole entry, looked up): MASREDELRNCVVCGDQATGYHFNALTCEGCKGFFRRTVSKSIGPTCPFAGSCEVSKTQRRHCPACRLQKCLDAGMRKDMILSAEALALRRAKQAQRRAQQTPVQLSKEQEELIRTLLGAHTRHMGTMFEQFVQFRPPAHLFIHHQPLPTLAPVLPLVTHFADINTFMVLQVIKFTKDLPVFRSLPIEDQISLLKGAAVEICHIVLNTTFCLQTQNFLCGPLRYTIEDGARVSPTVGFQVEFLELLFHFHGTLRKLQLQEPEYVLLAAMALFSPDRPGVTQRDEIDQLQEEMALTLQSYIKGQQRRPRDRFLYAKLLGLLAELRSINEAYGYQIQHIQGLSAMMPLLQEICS
SMILES,"activity, negative = inhibition",Potency
NCC[C@H](O)C(=O)N[C@@H]1C[C@H](N)[C@@H](O[C@H]2O[C@H](CN)[C@@H](O)[C@H](O)[C@H]2O)[C@H](O)[C@H]1O[C@H]1O[C@H](CO)[C@@H](O)[C@H](N)[C@H]1O,inactive: -4.74% [at 0.349 µM],–
CC(C)=CCl,–,"inconclusive: 24.6 µM [inhibitor, partial curve, poor fit]"
O=CC1CC=CCC1 (stereo not drawn),inactive: -2.4%,–
CN1[C@@H]2CC[C@H]1CC(OC(=O)C(O)c1ccccc1)C2 (stereo partly drawn),–,"inconclusive: 2.37 µM [inhibitor, full curve]"
O=C1C(N(CO)C(=O)NCO)N(CO)C(=O)N1CO (stereo not drawn),–,"inconclusive: 30.6 µM [inhibitor, partial curve, poor fit]"
O=C(O)C(=O)Nc1cccc(-c2nn[nH]n2)c1,–,"inconclusive: 1.88 µM [inhibitor, full curve]"
C[Si]1(C)O[Si](C)(C)O[Si](C)(C)O[Si](C)(C)O1,–,inactive
Nc1ccc(C(=O)N2CC3CC(CN(Cc4ccccc4)C3)C2)cc1,–,"inconclusive: 2.98 µM [inhibitor, single point]"

# — PubChem BioAssay (Tox21)
